In PubChem BioAssay AID330 (DTP/NCI, 2004):
Several values for one entry are separate records, joined by “and”; a condition that tells them apart may be missing. Identical values can stand only once. This continues a long series; more values of the same kind are listed elsewhere. Toxic doses and inconclusive results are not listed.

Tested on: P388 leukemia ip, CD2F1 mice, survival T/C
Assay: NCI In Vivo Anticancer Drug Screen. Data for tumor model P388 Leukemia (intraperitoneal) in CD2F1 (CDF1) mice
Conditions: endpoint: median survival time, higher = longer survival
In short: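 Mice carrying the transplanted tumor received test compound or vehicle. Survival was recorded in each group, and the value is the treated-group measurement divided by that of the vehicle-treated control group.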

Row | Structure (SMILES) | T/C (dose: 9.0 mg/kg/injection, schedule: Q01DX009 (ip), vehicle: saline) | T/C (dose: 10.0 mg/kg/injection, schedule: Q01DX009 (ip), vehicle: saline) | T/C (dose: 12.0 mg/kg/injection, schedule: Q01DX009 (ip), vehicle: saline) | T/C (dose: 16.0 mg/kg/injection, schedule: Q01DX005 (ip), vehicle: water) | T/C (dose: 20.0 mg/kg/injection, schedule: Q01DX009 (ip), vehicle: saline) | T/C (dose: 0.06 mg/kg/injection, schedule: Q01DX009 (ip), vehicle: saline) | T/C (dose: 0.1 mg/kg/injection, schedule: Q01DX009 (ip), vehicle: water) | T/C (dose: 0.13 mg/kg/injection, schedule: Q01DX005 (ip), vehicle: saline) | T/C (dose: 0.13 mg/kg/injection, schedule: Q01DX009 (ip), vehicle: water) | T/C (dose: 0.2 mg/kg/injection, schedule: Q01DX009 (ip), vehicle: other) | T/C (dose: 0.25 mg/kg/injection, schedule: Q01DX009 (ip), vehicle: clinical formulation) | T/C (dose: 0.25 mg/kg/injection, schedule: Q04DX003 (ip), vehicle: saline) | T/C (dose: 0.3 mg/kg/injection, schedule: Q01DX009 (ip), vehicle: water) | T/C (dose: 0.5 mg/kg/injection, schedule: Q01DX005 (ip), vehicle: saline) | T/C (dose: 0.5 mg/kg/injection, schedule: Q01DX009 (ip), vehicle: clinical formulation) | T/C (dose: 0.5 mg/kg/injection, schedule: Q08DX002 (ip), vehicle: saline) | T/C (dose: 0.8 mg/kg/injection, schedule: Q01DX009 (ip), vehicle: other) | T/C (dose: 1.0 mg/kg/injection, schedule: Q01DX009 (ip), vehicle: saline) | T/C (dose: 1.0 mg/kg/injection, schedule: Q04DX003 (ip), vehicle: saline)
1 | N[C@H](C(=O)O)[C@@H]1CC(Cl)=NO1 | 90 % of control | 94 % of control | 86 % of control | 93 % of control | 83 % of control | – | – | – | – | – | – | – | – | – | – | – | – | – | –
2 | CO[C@H](C(=O)[C@@H](O)[C@@H](C)O)[C@@H]1Cc2cc3cc(OC4CC(OC5CC(O)C(O)C(C)O5)C(O)C(C)O4)c(C)c(O)c3c(O)c2C(=O)[C@H]1OC1CC(OC2CC(OC3CC(C)(O)C(O)C(C)O3)C(O)C(C)O2)C(O)C(C)O1 (some centres undefined) | – | – | – | – | – | 91 % of control | 122 % of control | 121 % of control | 122 % of control and 96 % of control | 123 % of control | 122 % of control | 122 % of control | 94 % of control | 156 % of control | 96 % of control | 122 % of control | 56 % of control | 151 % of control | 95 % of control
